About 14,000 (4.5%) of roughly 310,000 compounds showed an effect of 50% or more. The effect is printed as a negative number. Some of the results follow.
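Further: peak tail current of the secondary pulse compared with the same well before compound.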

The target in this assay is human ether-à-go-go-related gene (hERG) potassium channel (human, UniProt Q12809). Nature of the assay: primary screen, population patch clamp on CHO cells stably expressing hERG.
Sequence of human ether-à-go-go-related gene (hERG) potassium channel (Q12809 whole entry, looked up): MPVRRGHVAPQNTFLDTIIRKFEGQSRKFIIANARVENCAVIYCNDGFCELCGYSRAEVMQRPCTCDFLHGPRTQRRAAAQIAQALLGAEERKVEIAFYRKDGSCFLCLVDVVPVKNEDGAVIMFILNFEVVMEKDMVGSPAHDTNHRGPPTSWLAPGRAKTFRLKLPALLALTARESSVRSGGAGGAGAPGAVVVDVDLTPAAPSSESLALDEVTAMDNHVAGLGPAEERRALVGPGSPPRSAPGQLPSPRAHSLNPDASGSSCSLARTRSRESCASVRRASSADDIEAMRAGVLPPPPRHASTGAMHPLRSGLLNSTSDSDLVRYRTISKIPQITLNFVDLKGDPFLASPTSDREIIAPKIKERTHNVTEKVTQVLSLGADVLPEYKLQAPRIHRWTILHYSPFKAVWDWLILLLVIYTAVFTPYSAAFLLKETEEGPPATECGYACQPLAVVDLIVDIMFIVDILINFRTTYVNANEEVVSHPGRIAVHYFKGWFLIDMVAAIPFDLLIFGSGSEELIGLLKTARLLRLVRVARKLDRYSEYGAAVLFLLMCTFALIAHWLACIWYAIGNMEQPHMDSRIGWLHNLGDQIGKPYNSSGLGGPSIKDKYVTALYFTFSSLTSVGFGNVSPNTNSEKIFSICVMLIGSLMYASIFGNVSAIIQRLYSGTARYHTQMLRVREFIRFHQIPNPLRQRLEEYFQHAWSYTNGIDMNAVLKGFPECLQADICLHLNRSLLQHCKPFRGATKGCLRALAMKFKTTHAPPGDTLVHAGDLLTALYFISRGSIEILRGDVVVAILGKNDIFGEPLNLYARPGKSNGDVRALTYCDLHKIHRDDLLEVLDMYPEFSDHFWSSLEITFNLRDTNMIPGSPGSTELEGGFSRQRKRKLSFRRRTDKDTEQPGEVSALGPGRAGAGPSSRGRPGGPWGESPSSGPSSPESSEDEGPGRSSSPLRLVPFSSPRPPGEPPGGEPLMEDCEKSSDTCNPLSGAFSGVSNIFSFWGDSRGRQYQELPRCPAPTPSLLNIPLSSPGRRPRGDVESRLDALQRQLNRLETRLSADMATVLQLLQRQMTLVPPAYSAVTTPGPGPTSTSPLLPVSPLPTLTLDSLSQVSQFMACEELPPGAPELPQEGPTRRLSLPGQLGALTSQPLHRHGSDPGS
With `COc1ccc(C2=NN(c3nc(C)cc(C)n3)C(=O)C2)cc1`, the “hERG current change (%, negative = inhibition) at 10uM” value is given as -0.463%. With `OC1(c2cccc(C(F)(F)F)c2)CCN(Cc2nc(-c3cnccn3)no2)CC1` the figure was -0.399%; with `O=C(NCc1ccccc1Cl)C1CCC(=O)N(CC2CCCCC2)C1` (centres unmarked), -2.61%; with `COc1ccc(/C=N/NC(=O)C2C(=O)NCC2c2ccccc2)c(OC)c1` (centres unmarked), 13.2%. On to `COCCn1c(SCC(=O)NC2CC2)nnc1-c1ccco1`, for which the “hERG current change (%, negative = inhibition) at 10uM” value came out at 3.05%. With `CCOC(=O)C1=C(C)Nc2nnnn2C1c1ccc(OC)c(Br)c1` (centres unmarked) the figure was 3.26%; with `CCn1ccnc1[C@@H]1C[C@H]2CN(Cc3cccc(Cl)c3)C(=O)[C@]23CCCN13`, -39.3%. With `CCOc1ccc(N2C(=O)/C(=C/c3ccc(C)o3)C(=O)NC2=S)cc1` the figure was 21.5%; with `Fc1ccc(-n2nnc(-c3ccnc4ccccc34)n2)cc1`, -1.35%; with `Cc1ccc2nc3ccc(N4CCN(C)CC4)nn3c(=O)c2c1`, -33.9%. With `Cc1cc(C)nc(NC(=NCCc2c[nH]c3ccccc23)NC(=O)Nc2ccccc2)n1`, the “hERG current change (%, negative = inhibition) at 10uM” value is 2.01%. With `CCS(=O)(=O)c1ccc(-c2cccc(NC(=O)c3ccc(Br)o3)c2)nn1` the figure was -31.1%; with `Brc1ccc(-c2nc(-c3ccncc3)no2)cc1`, 15.8%; with `Cc1cc(C)nc(NC(=O)CCN2C(=O)c3ccccc3S2(=O)=O)n1`, -5.11%. With `CC(=O)Nc1ccc(-c2nnc(SCc3ccccc3C#N)n2C)cc1` the figure was -6.67%; with `CCOc1ccc2nc(SCC(=O)NCc3ccccc3OC)[nH]c2c1`, -6.24%; with `Nc1cc(C(=O)OCC(=O)c2ccc(CC(=O)N3CCOCC3)s2)ccc1Cl`, -27.8%.

Regarding `CCN(C(=O)CSc1nc2cc(Cl)ccc2c(=O)n1CC(C)C)C1CCS(=O)(=O)C1` (centres unmarked), the “hERG current change (%, negative = inhibition) at 10uM” value was found to be 2.51%. With `Cc1cc(C)nc(NS(=O)(=O)c2ccc(NC(=S)NC(=O)C3CCCC3)cc2)n1` the figure was -5.83%; with `COc1cc(OC)cc(C(=O)OCCCOC(=O)c2cc(OC)cc(OC)c2)c1`, 24.6%. Consider `CN1CCN(/N=C/c2c[nH]c3ccccc23)CC1`, for which the “hERG current change (%, negative = inhibition) at 10uM” value was found to be 14.5%. With `NC(=O)N/N=C/CCc1ccccc1` the figure was 14%; with `CC(C)C(NC(=O)c1ccco1)C(=O)OCC(=O)c1ccccc1` (centres unmarked), 16.2%; with `CCN(CC(=O)Nc1c(F)cccc1F)C(=O)CSCC(=O)Nc1ccc(OC)cc1`, -3.35%. With `COc1ccccc1CNC(=O)COc1ccc(S(=O)(=O)N2CCOCC2)cc1` the figure was -14.5%; with `O=c1[nH]c2ccccc2nc1C(Nc1ccccc1)c1ccccc1` (centres unmarked), -0.607%; with `Cc1ccccc1C(=O)Nc1cc(S(=O)(=O)N2CCOCC2)ccc1N1CCN(C)CC1`, -17.4%.

Consider `CCOC(=O)c1c(NC(=O)Cn2c(C)nc3ccccc32)sc2c1CCC2`, for which the “hERG current change (%, negative = inhibition) at 10uM” value is -0.987%. In the case of `O=C(CCNS(=O)(=O)c1ccc(Br)s1)NCc1ccccc1Cl`, the “hERG current change (%, negative = inhibition) at 10uM” value was -3.77%. With `O=C(O)CCN1C(=O)c2ccccc2Sc2ncccc21` the figure was 12.9%. Consider `O=C(Cc1csc(NC(=O)Nc2cccc(Cl)c2)n1)NC1CCCC1`, for which the “hERG current change (%, negative = inhibition) at 10uM” value amounted to 16.4%. With `CC(=O)Nc1ccc(S(=O)(=O)N2CCN(S(=O)(=O)N3CCCCCC3)CC2)cc1` the figure was 8.41%; with `Cn1c(NC(=O)c2ccccc2)cc(=O)n(C)c1=O`, -8.17%; with `Cc1ccc(SCCC(=O)NCC2CCCO2)cc1` (centres unmarked), 22.4%.

With `CCOC(=O)c1nc(C)c(C(C)=O)s1`, the “hERG current change (%, negative = inhibition) at 10uM” value turned out to be 14.8%.

Turning to `COc1ccc(C(=O)N/N=C/c2cccnc2)cc1`, the “hERG current change (%, negative = inhibition) at 10uM” value is listed as 13.1%. For the compound `Cc1c(C(=O)O)oc2ccc(S(=O)(=O)NCc3ccc4c(c3)OCO4)cc12`, the “hERG current change (%, negative = inhibition) at 10uM” value was found to be 11.4%. With `Cc1ccc(NS(=O)(=O)c2ccc(N3C(=O)CCC3=O)cc2)cc1` the figure was -11.5%. With `Cc1ccc(C(=O)OCc2cc3ccccc3[nH]c2=O)cc1` the figure was 13.3%; with `Cc1cc(=O)n2nc(N3CCCC(C(=O)Nc4ccc(C)c(C)c4)C3)sc2n1` (centres unmarked), -48.2%; with `COc1ccc(NC(=O)c2sccc2OS(=O)(=O)N(C)C)cc1`, 11.2%. With `CC(C)CN1CCNC(=O)C1CC(=O)NCCc1ccc(C(F)(F)F)cc1` (centres unmarked) the figure was 0.053%; with `N#Cc1cnn(-c2ccccc2)c1NC(=O)CN1CCN(c2ccccc2)CC1`, -5.56%. Turning to `CCOc1ccc(C(=O)NCCc2ccc3c(c2)OCCO3)cc1`, the “hERG current change (%, negative = inhibition) at 10uM” value is -5.27%.

For the origin of these results see paper PMC4336329 (PLoS ONE, 2015).
